Reference: PubChem BioAssay AID743262 (National Center for Advancing Translational Sciences (NCATS), 2014)
About 25 (2%) of roughly 1,300 compounds were called active. Another 9% or so got no clear call; they are omitted. Calls come from the whole dose curve; as a rule, active = well fitted activation curve with a large enough effect; inconclusive = small, poorly fitted or top-dose-only effect; inactive = flat fitted curve, though single readings scatter. The list shows a part of the results.

biological target: Glucagon-like peptide 1 receptor (Homo sapiens) (UniProt P43220); test: qHTS of GLP-1 Receptor Agonists: Hit Validation; conditions: HEK293 GLP-1R, cAMP-response luciferase, 4-6 h; series mostly up to 46.1 µM; activation: at the top concentration; note: % of control where 0% means no effect
Method in brief: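 Luminescence from a cAMP-responsive luciferase reporter was read 12 min after detection reagent at RT. Before that, HEK293 cells stably expressing GLP-1R plus reporter, seeded 12 h earlier, were exposed to compound for 4-6 hr at 37 deg C.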

UniProt P43220, sequence (P43220 whole entry, looked up): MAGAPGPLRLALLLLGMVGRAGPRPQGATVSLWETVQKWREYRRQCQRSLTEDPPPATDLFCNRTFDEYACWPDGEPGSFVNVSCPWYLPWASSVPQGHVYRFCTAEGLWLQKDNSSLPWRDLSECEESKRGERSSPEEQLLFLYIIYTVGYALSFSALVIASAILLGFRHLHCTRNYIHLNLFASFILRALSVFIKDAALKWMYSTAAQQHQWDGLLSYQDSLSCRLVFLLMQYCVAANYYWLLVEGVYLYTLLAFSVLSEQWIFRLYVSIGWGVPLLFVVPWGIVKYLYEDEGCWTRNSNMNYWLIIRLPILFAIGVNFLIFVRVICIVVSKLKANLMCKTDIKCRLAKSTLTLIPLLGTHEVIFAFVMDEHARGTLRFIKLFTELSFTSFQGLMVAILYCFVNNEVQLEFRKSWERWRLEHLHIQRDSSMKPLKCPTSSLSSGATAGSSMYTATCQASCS

activation, inactive:
CCOC(=O)c1c(-c2cccs2)csc1NC(=O)CN1CCOCC1 16.2%
Cc1snc(SCc2cccc(Cl)c2)c1C#N 0.198%
[O-][n+]1c2c(nn1-c1ccc(Cl)c(Cl)c1)-c1nonc1CC2 15.7%
COc1ccc(S(=O)(=O)Nc2ccc3oc4ncccc4c(=O)c3c2)cc1OC 2.91%
CCOC(=O)c1c(N)c(C#N)c2n1CCCC2 3.54%
COc1cc2c(cc1OC)/C(=C/C(=O)c1ccccc1F)NCC2 24.2%
O=c1[nH]nc(-c2ccc(NCCO)c([N+](=O)[O-])c2)c2ccccc12 13.2%
CCOc1ccc(N2CC(C(=O)Nc3ccncc3)CC2=O)cc1 (configuration not stated) -0.582%
COc1ccc(Nc2nc(-c3sc(C)nc3C)cs2)c(OC)c1 11.7%
CCN(CC)c1ccc(C2=NNC(=O)CC2C)cc1[N+](=O)[O-] (configuration not stated) 13.5%
COCCCNC(=O)COc1ccc(-c2nccc(-c3ccccn3)n2)cc1 1.79%
O=C1NC(=Nc2ccccc2Cl)S/C1=C\c1cccc([N+](=O)[O-])c1 5.05%
CCOC(=O)c1c(C)nc2ccccn12 1.88%
CCn1c(SCc2nc3ccccc3c(=O)[nH]2)nc2ccccc2c1=O 3.05%
COc1c(S(=O)(=O)N2CCCC2)ccc(Cl)c1Cl 7.06%
CCCCCCSc1cccc(-c2nc3ccc(Cl)cn3c2NCCCC)c1 -0.444%
CCc1ccc(CNC(=O)C2CCC(=O)N2C2CCCCC2)cc1 (configuration not stated) -0.908%
COc1ccc(CCN(C)C/C=C/c2ccccc2[N+](=O)[O-])cc1OC 4.02%
CC(C)Cn1cnc2c(SCc3ccccc3F)nc(N)nc21 5.83%
O=C(CCN1C(=O)/C(=C\c2ccccc2)SC1=S)N1CCCCC1 -1.3%
COc1cc2[nH]cc(C(=O)NCCc3ccccc3)c(=O)c2cc1OC 5.56%
COc1ccc(CCNC(=O)CCn2c(=O)oc3ccccc32)cc1OC 0.807%
COc1ccc(-c2cc(N3C(=O)Nc4ccccc4N3O)n[nH]2)cc1 -1.22%
COc1ccc(-c2csc(Nc3ncccc3C)n2)cc1OC 18.5%
Cc1cc(C)nc(N2CCCC(C(=O)Nc3ccc4nc(C)c(C)nc4c3)C2)n1 (configuration not stated) 2.27%
O=C(CCNc1ccc(F)cc1)c1cc2ccccc2o1 -0.528%
CN1CCN(c2nc(-c3cccc([N+](=O)[O-])c3)nc3ccccc23)CC1 15.3%
CCOC(=O)COc1ccc2c(=O)cc(-c3ccccc3)oc2c1 2.29%
CCC(C(=O)NC1CCCC1)N(Cc1cccs1)C(=O)Cn1nnc(-c2ccc(OC)c(OC)c2)n1 (configuration not stated) 2.93%
COc1ccc(CN(C)CC(=O)Nc2cccc3ccccc23)cc1F 5.83%
COc1nc(Nc2ccc(OC)c(Cl)c2)nc(OC)n1 3.68%
COc1cc2c(cc1OC)CN(C(=O)Cc1ccccc1)CC2 1.65%
Cc1nn(CCC(=O)O)c2nc(-c3cccnc3)cc(C(F)(F)F)c12 0.27%
CN(C)NC(=O)c1ccsc1NC(=O)c1ccc(S(=O)(=O)N(C)C)cc1 0.0754%
COc1ccccc1/C=N/Nc1nc(C)cc(C)n1 -0.146%
CCN1CCN(C(c2cccnc2)c2cc(Cl)c3cccnc3c2O)CC1 (configuration not stated) 13.2%
N=C1C(c2ccccc2)=C(O)CN1NC(=O)c1ccccc1 -0.663%
COc1ccc(C(=O)N2CCc3cc(OC)c(OC)cc3C2c2ccc(OC)c(OC)c2)cc1 (configuration not stated) 11.9%
COc1ccc(/C=C2/N=C3CCCCCN3C2=O)cc1OC 7.1%
CCOc1ccc(C(=O)c2nc3c(n2O)CCCC3)cc1 -0.793%
COCCNc1nc(CSc2ccccc2)nc2sc(C)c(C)c12 9.75%
C/C(=N\NC(=O)C1CCCC1)c1ccc(C(C)C)cc1 4.5%
CC1CN(c2nc(Nc3ccccc3F)nc(N)c2[N+](=O)[O-])CC(C)O1 (configuration not stated) 4.01%
c1ccc2c(c1)ccc1nnc(-c3ccc4c(c3)OCO4)n12 4.04%
COc1ccc(NC(=O)C2(C)CCN2Cc2ccc(OC)c3ccccc23)cc1OC (configuration not stated) 17.8%
C[N+](C)(C)CC=O -0.968%
O=C(COc1ccc(Cl)cc1Cl)NCCCCc1ccccc1 3.11%
O=C(Nc1cccc(S(=O)(=O)NC2=NCCC2)c1)c1ccc(F)cc1F -1.65%
C=CCn1c2ccccc2c(=O)c2cc(C#CC3(O)CCCCC3)ccc21 19.5%
CSCCC(NS(=O)(=O)/C=C/c1ccccc1)C(=O)NCCc1ccc(S(N)(=O)=O)cc1 (configuration not stated) -1.13%
CCNC(=S)/N=C(/Nc1ccccc1)Nc1nc(C)cc(C)n1 8.06%
Cc1ccc(C)c(N2N=C(C(=O)NCCN3C(=O)S/C(=C\c4cccnc4)C3=O)CCC2=O)c1 -0.677%
N#Cc1sc2nc(C3CC3)cc(-c3ccccc3)c2c1N 20.2%
CC(C)OC(=O)c1cc2c(OCC(O)CNC(C)(C)C)cccc2[nH]1 (configuration not stated) 4.39%
CC(C)COC(=O)c1cc(=O)[nH]c2ccccc12 0.571%
CCCOc1ccc(N2C(=O)CC(N3CCN(CCN=CC4C(=O)CC(C)(C)CC4=O)CC3)C2=O)cc1 (configuration not stated) -0.746%
CC(C)(C)C(=O)c1cnc(Nc2ccccc2)s1 3.5%
COc1ccc(C(C)=O)cc1COC(=O)c1ccc(N)c([N+](=O)[O-])c1 17%
N#C/C(=C\c1ccc(N2CCOCC2)o1)C(=O)NC1CCCCC1 4.42%
C=CCN=c1scc(-c2ccc(F)cc2)n1/N=C/c1ccccn1 29.6%
CCOC(=O)c1c(NC(=O)COC(=O)Cc2n[nH]c(=O)c3ccccc23)sc(C(=O)N(C)C)c1C 4.92%
Cc1ccc(CNc2cc(-c3nn4c(C)nnc4s3)ccc2C)s1 16.4%
CC(=O)Nc1cc(-c2ccccc2F)cn2c(-c3ccccc3)cnc12 3.65%
Oc1ccc(N=Cc2ccc(-c3cccs3)s2)cc1 2.69%
COc1ccc(C(=O)c2sc(Nc3ccccc3F)nc2N)cc1 13.6%
CC(C)CCOc1ccc(C2=NNC(=O)CC2)cc1 3.1%
CCOc1cc(/C=N/NC(=O)CSc2cccc3cccnc23)ccc1O 7.22%
C#CC(CC)(CC)NC(=S)Nc1ccc(S(N)(=O)=O)cc1 0.266%
CCOc1ccc(C(C)=O)cc1Cn1nc(C(=O)O)c2ccccc2c1=O 21.1%
CC(C)(C)n1cnc2cc(NCc3ccc(Br)cc3)ccc21 4.16%
COc1cc2c(cc1OC)CN(C(=O)CCCN1C(=O)c3ccccc3C1=O)CC2 4.68%
CCOC(=O)c1oc2ccccc2c1COC(=O)CNC(=O)c1ccccc1OC 3.94%
